From PMC12136788 come the findings set out here.

The other results are listed elsewhere or left out.

B1: chrX:70926549:70926550:+_ENSMUSG00000019558_ENSMUST00000114465|mus_mus|motif|central (ssRNA)
RNA: GGGAGUUCUACAGUCCGACGAUCCAGGCAGACCCCCAAACUGUCAAGGAAAGGCAAGCCCCCGGAGGGAUGAGUGGGGGCGGAAGUUGGGGCUGCUAUGGCUACCAAAGGAUGAGCUGGUGAUGUGAGCUGGGGGUGCCUGUUCAACAGAGGAUUGAGCAUCA
B2: chr3:19126987:19126988:-_ENSMUSG00000069094_ENSMUST00000091314|mus_hu|FALSE|FALSE (ssRNA)
RNA: GGGAGUUCUACAGUCCGACGAUCUAAAAAAAAUUGCAUUGCCAAACGGCACUGGAGUGAAAGCUUGGCGGUACUCUACGAUAAAUGCUCAGUUUCCAGUGCAUGAAAUAAAACUAUAGCAAAUGGGAGGCUUUGGUGGCAUCCCAACAGAGGAUUGAGCAUCA
B3: chr9:57400063:57400064:-_ENSMUSG00000032306_ENSMUST00000034856|mus_mus|FALSE|FALSE (ssRNA)
RNA: GGGAGUUCUACAGUCCGACGAUCCAGGCAUGCCACUUCACUUUUGGAGCCCACCUUCCCCCAGGCAUACUGCUGCACCACACAGGAAAGUGGGAACACUCGCGGACUCGCCAUCCCAGUUGCCUGAAACCCGGCUUCAGGAACCAACAGAGGAUUGAGCAUCA
B4: chr17:65740002:65740003:+_ENSG00000130935_ENST00000581375|hu_hu|hu_hu_hu_mus_False|1_68 (ssRNA)
RNA: GGGAGUUCUACAGUCCGACGAUCAACAAAUCUUUCUUCCCUGGACGAACAGGAAGAUUCAUAUUAACUUUAUAAAAUAUCCAUCAAGUUAGGUGUGGUGGCCACACCUUUACUCCCAGCACUUUGGGAGGUGGAUCCUCUAUUCAACAGAGGAUUGAGCAUCA
B5: chr11:46405157:46405158:+_ENSG00000110492_ENST00000395566|hu_hu|hu_hu_hu_mus_False|78_88 (ssRNA)
RNA: GGGAGUUCUACAGUCCGACGAUCCCCUCCCCACUUUGGGCACUUGGUGAGAGGGACAAGGCAGGGCCGUGAUUGACAGAGCUGACAGGAAGACAAAAGGCACUGGUGGGUUAUAUCUUGGGCCUGUGGGAGAGGAGGGCUCCGCAACAGAGGAUUGAGCAUCA
B6: chr10:20042908:20042909:+_ENSMUSG00000037608_ENSMUST00000043881|mus_hu|FALSE|FALSE (ssRNA)
RNA: GGGAGUUCUACAGUCCGACGAUCGGAACGUGAACGACCUCGUCUAGGACUCCUAGAGUGCCUUCUAUUCCAGACAGGUCUAUAACCACCUCGAUGAUAUCUACCUCCUCCUCCUUGAUAAUACCCUCUACCCCUUCCUCUGUACAACAGAGGAUUGAGCAUCA
B7: chr16:94651144:94651145:+_ENSMUSG00000040785_ENSMUST00000117648|mus_mus|motif|central (ssRNA)
RNA: GGGAGUUCUACAGUCCGACGAUCCUUCUCUUGGAUCAAGUGACCGAUAACAUAGUCCACUGCUUCAUGGACAAAAUUUUUGCGGGAAAAGCAUGUUGUAUAGUCUUCCGUGCUCAGAACCUUCCAAGAGAGCAGCUCUUUGAGCAACAGAGGAUUGAGCAUCA
B8: chr11:87793471:87793472:-_ENSMUSG00000020483_ENSMUST00000020775|mus_mus|mus_mus_mus_hu_False|38_38 (ssRNA)
RNA: GGGAGUUCUACAGUCCGACGAUCUGGACUUGAAAAUAAAAGAAUAAGCUGGAUCCCCCACCCCCCCACAUUGUCAACCCUACACGAGAGUUUUGAAUGAUUCAUAAGAAAAUCAGCAGCUCAAACGGCAAUGACCACCCCACCCAACAGAGGAUUGAGCAUCA
B9: chr2:179515052:179515053:+_ENSMUSG00000000305_ENSMUST00000000314|mus_hu|mus_mus_mus_hu_False|18_68 (ssRNA)
RNA: GGGAGUUCUACAGUCCGACGAUCGCUGUCCCAUGCAGUCACCGUGAACGCCACCUGCUCGGAGGGGAUCUUCAACUCCCGGGUGGCGAAGACUGUCCCAUCUGCCCCAACUUUGAAGUCCAAGCUGUUGGUCUCAUAUUGUGUCAACAGAGGAUUGAGCAUCA
B10: chr7:109059925:109059926:+_ENSMUSG00000030842_ENSMUST00000033131|mus_mus|FALSE|FALSE (ssRNA)
RNA: GGGAGUUCUACAGUCCGACGAUCCAGGUUAGGUACUGUAGAGAGCCACAGUGAGGCUGGGGGCCAGAAGAGGUGGGGUGGAGACGGGGUGAAGACGAGGGAAGAGCUGUCCUAGGGCCCCUCUCUUCAUGGGAUCCCAAACUGCAACAGAGGAUUGAGCAUCA
B11: chr2:174291214:174291215:-_ENSMUSG00000016257_ENSMUST00000016401|mus_mus|motif|central (ssRNA)
RNA: GGGAGUUCUACAGUCCGACGAUCUUUUGUUUAGAUCAAAAGUCACAGCCUUACCCCACCUCAUUAAAAAAAAAGAUCGGCCGGAAAUAAUUGUGUCUUUUAAAUAACAAAUAAUAUGAUGCCAGCUUGAGAGUCCUGGAGCCCCAACAGAGGAUUGAGCAUCA
B12: chr4:106906351:106906352:-_ENSMUSG00000028617_ENSMUST00000030360|mus_mus|FALSE|FALSE (ssRNA)
RNA: GGGAGUUCUACAGUCCGACGAUCCCUCGUACUGAGGUGGGGGAGGUCGACUGUAUGUGUCAGUCAGUAGGAAUUGAGCAAAUCCCAAUCUUCCACAGCCAGACACACACACUUCUGCUUGGCCGACUGGGGCGAGCUCUGCUCCAACAGAGGAUUGAGCAUCA
B13: chr5:143665172:143665173:-_ENSMUSG00000029580_ENSMUST00000100497|perfect_dup|motif|central (ssRNA)
RNA: GGGAGUUCUACAGUCCGACGAUCGGCUUUUAGGAUGGCAAGGGACUUCCUGUAACAACGCAUCUCAUAUUUGGAAUGACGGUUAAAAAAACAACAAUGUGCAAUCAAAGUCCUCGGCCACAUUGUGAACUUUGGGGGAUGCUCCAACAGAGGAUUGAGCAUCA
B14: 121128427_121128547_4082_CDS_ENSMUSG00000027254_ENSMUST00000094639|mouse|control|control (ssRNA)
RNA: GGGAGUUCUACAGUCCGACGAUCGCUUUGAUCAGUAAACCCAAGCAGCUCAUCUUUCUGAGGCUCAGCGGGCUCCUGAGUCCUCACUUCUCCAGGAAGGCUGCCUGCUCCUGAAGCUGCGCCUGCCUCUCCAGUCUCAAACACCAACAGAGGAUUGAGCAUCA

This experiment addresses T1, UNK ZnF1-3 (human, UniProt Q9C0B0 31-174).
T1 sequence: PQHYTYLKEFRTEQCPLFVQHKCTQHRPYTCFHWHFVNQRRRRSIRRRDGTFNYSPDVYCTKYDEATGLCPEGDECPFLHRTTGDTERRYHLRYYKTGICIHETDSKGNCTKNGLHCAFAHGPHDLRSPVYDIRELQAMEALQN
Nature of the experiment: nsRBNS (natural sequence RNA bind-n-seq); RBNS binding buffer (assumed for nsRBNS): 25 mM Tris pH 7.5, 150 mM KCl, 3 mM MgCl2, 0.01% Triton X-100, 500 ug/ml BSA, 20 U/ml SUPERase-In, 4 C; UNK is unkempt and MSI1 is Musashi-1; names of the RNAs are library labels; protein concentration not given here; high values mean tight binding.
B1: the binding signal was found to be 1.48 enrichment R.

Take B2: the binding signal is 1.18 enrichment R.

For B3, the binding signal was 0.936 enrichment R.

B4 returned a binding signal of 0.792 enrichment R.

B5 registered a binding signal of 1.7 enrichment R.

On to B6, for which the binding signal stood at 0.769 enrichment R.

Molecule B7 showed a binding signal of 0.614 enrichment R.

For the molecule B8, the binding signal was 2.16 enrichment R.

In the case of B9, the binding signal is 0.678 enrichment R.

B10 returned a binding signal of 1.24 enrichment R.

Take B11: the binding signal is 2.64 enrichment R.

B12 gave a binding signal of 0.559 enrichment R.

B13 had a binding signal of 1.06 enrichment R.

Consider B14, for which the binding signal amounted to 0.677 enrichment R.
